Test results from PubChem BioAssay AID588453 (National Center for Advancing Translational Sciences (NCATS), 2011).
In all, about 390,000 compounds went through this assay and about 4,000 (1%) were called active. Inconclusive means that the source gave no clear call. Such entries were picked first, then a sample of the others. The call rests on the fitted dose curve; in most records, active means well fitted inhibition curve with a large enough effect; inconclusive means small, poorly fitted or top-dose-only effect; inactive means no such curve, though single readings can be large or run the other way. Where the call is inconclusive, the potency comes from a doubtful curve fit.

target: Thioredoxin reductase 1, cytoplasmic (Rattus norvegicus) (UniProt O89049); test: qHTS Assay for Inhibitors of Mammalian Selenoprotein Thioredoxin Reductase 1 (TrxR1): qHTS; conditions: recombinant rTrxR1, NADPH fluorescence consumption, selenite substrate; series mostly up to 114 µM; further: nearly all actives have a fitted effect of over 65% in size
Method in brief: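 Rat TrxR1 (90 nM in the dispensed reagent) was pre-reduced with 400 uM NADPH for 5 min at room temperature, then incubated with compound for 15 min. After 400 uM selenite was added, NADPH fluorescence (Ex 340/Em 450 nm) was followed for 8 min.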
Potency means the concentration at half of the fitted maximal effect; tags describe the fitted curve by direction and shape.

Sequence of UniProt O89049 (O89049 whole entry, looked up): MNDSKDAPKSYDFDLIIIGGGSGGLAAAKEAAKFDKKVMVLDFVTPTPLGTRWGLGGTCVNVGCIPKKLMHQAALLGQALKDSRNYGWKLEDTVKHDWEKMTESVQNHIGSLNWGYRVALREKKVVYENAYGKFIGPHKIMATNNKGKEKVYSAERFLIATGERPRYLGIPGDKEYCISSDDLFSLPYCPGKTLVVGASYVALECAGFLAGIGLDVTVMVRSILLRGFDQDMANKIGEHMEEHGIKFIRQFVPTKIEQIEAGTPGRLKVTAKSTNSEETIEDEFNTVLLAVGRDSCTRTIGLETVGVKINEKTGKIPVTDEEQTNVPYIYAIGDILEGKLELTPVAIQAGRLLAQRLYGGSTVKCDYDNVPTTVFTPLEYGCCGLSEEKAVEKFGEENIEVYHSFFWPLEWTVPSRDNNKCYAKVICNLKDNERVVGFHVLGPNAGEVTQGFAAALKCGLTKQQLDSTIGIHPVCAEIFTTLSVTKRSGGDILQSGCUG

| Structure (SMILES) | Potency |
| --- | --- |
| O=c1c(/C=C(\O)c2ccc(F)cc2)nc2ccccc2n1-c1ccccc1 | inconclusive: 79.4 µM [inhibitor, single point] |
| COc1cccc(NC(=O)CSc2nnc(Cc3ccc(C)cc3)c(=O)n2N)c1 | inactive |
| Cc1cc(C)cc(N(C(=O)CNC(=O)c2ccco2)C(C(=O)NC2CCCC2)c2cccnc2)c1 (centres undefined) | inactive |
| O=C(NC1CCN(Cc2ccccc2)CC1)c1cc(-c2ccccn2)nc2ccccc12 | inactive |
| Cc1c(NC(=O)C(=O)/C=C(/O)c2ccccc2)c(=O)n(-c2ccccc2)n1C | inconclusive: 35.5 µM [inhibitor, partial curve, poor fit] |
| Cc1cc(NC(=O)Cn2cnc3sc(C)c(C)c3c2=O)no1 | inactive |
| Cc1ccc(OCC(=O)c2ccc(Cl)s2)c([N+](=O)[O-])n1 | inconclusive: 7.94 µM [inhibitor, partial curve] |
| CC(C)c1ccc(/C=C2\C=Cc3ccccc32)cc1 | inconclusive: 31.6 µM [inhibitor, full curve] |
| COc1cccc(C(=O)NNS(=O)(=O)c2ccc(C)cc2)c1 | inactive |
| O=C(/C=C/c1ccco1)Nc1ccccc1N1CCOCC1 | inconclusive: 89.1 µM [inhibitor, single point] |
| Cc1ccc(C(=O)NC(=S)Nc2ccc(N3CCOCC3)cc2)cc1 | inconclusive: 17.8 µM [inhibitor, full curve] |
| Nc1ncnc2c1ncn2[C@@H]1O[C@H](CNC(=O)[C@@H]2C[C@H](F)CN2)[C@@H](O)[C@H]1O | inconclusive: 1 µM [inhibitor, full curve, poor fit] |
| CC(C)(C)OC(=O)N1CCN(/[N+]([O-])=N/Oc2ccc([N+](=O)[O-])cc2[N+](=O)[O-])CC1 | inconclusive: 22.4 µM [inhibitor, full curve, poor fit] |
| OCCN(Cc1ccccc1)CC1CC2C=CC1C2 (centres undefined) | inconclusive: 89.1 µM [inhibitor, single point] |
| COc1ccc(-c2csc(NC(=O)C(CC(=O)O)N3CCOCC3)n2)cc1 (centres undefined) | inactive |
| O=C(CSc1nnc(-c2ccco2)n1Cc1ccccc1)c1ccc(F)cc1 | inconclusive: 31.6 µM [inhibitor, full curve] |
| O=C(c1cc2nc(-c3ccccc3)cc(-c3ccccc3)n2n1)N1CCN(C(=O)c2ccco2)CC1 | inactive |
| COc1ccc(N2CC(C(=O)Nc3nnc(SCC(=O)NCC4CCCO4)s3)CC2=O)cc1 (centres undefined) | inconclusive: 70.8 µM [inhibitor, partial curve] |
| Cc1nn(Cc2ccc(C(=O)N3CCCC3)o2)c(C)c1[N+](=O)[O-] | inconclusive: 15.8 µM [inhibitor, full curve] |
| O=C(Nc1ccc2c(c1)OCCO2)NC12CC3CC(CC(C3)C1)C2 | inactive |
| Nc1ccc(/C=C/c2ccc3cccnc3c2)cc1 | inactive |
| Cc1ccc(-n2c(C)cc(-c3csc(N)n3)c2C)cc1 | inconclusive: 89.1 µM [inhibitor, single point] |
| Cc1c(Br)c([N+](=O)[O-])nn1CCCC(=O)N1CCN(c2ccccc2)CC1 | inactive |

| Structure (SMILES) | Potency |
| --- | --- |
| CCn1c(=O)cc(OCC(=O)NCc2ccc(C)o2)c2ccccc21 | inconclusive: 31.6 µM [inhibitor, single point] |
| O=C(O)c1cccc(-c2ccc(/C=N/NC(=O)c3cccnc3)o2)c1 | inconclusive: 50.1 µM [inhibitor, partial curve] |
| Cc1cc(/C=C2\SC(=Nc3ccc(N4CCOCC4)cc3)N(C)C2=O)c(C)n1-c1cccnc1 | inconclusive: 79.4 µM [inhibitor, single point] |
| CC(C)(C)C(=O)NC(=S)Nc1ccc(F)cc1 | inconclusive: 5.01 µM [inhibitor, partial curve, poor fit] |
| CC(O)CNc1nc2sc3c(c2c(=O)n1CCc1ccccc1)CCCCC3 (centres undefined) | inactive |
| N=C(N)SCCc1cccc(CCSC(=N)N)c1 | inactive |
| Cc1ccc(NC(=O)CC2SC3=NCCCN3C2=O)c(C)c1 (centres undefined) | inconclusive: 3.16 µM [inhibitor, partial curve, poor fit] |
| CC(C)(C)Cc1nnc(NC(=O)CSc2ccccc2)s1 | inactive |
| COC1C(CO)OC(n2cnc3c(=S)nc(N)[nH]c32)C1O (centres undefined) | inconclusive: 79.4 µM [inhibitor, single point] |
| NS(=O)(=O)c1ccc(CNC(=O)/C=C/c2ccco2)cc1 | active: 17.8 µM |
| CCOC(=O)c1cc([N+](=O)[O-])cc([N+](=O)[O-])c1Sc1ncnc2nc[nH]c12 | active: 0.447 µM |
| COc1ccc(-c2nnc(SCC(=O)c3ccco3)n2-c2ccccc2)cc1 | inconclusive: 8.91 µM [inhibitor, partial curve, poor fit] |
| COc1ccc(CCNC(=O)c2ccc(-c3ccc([N+](=O)[O-])cc3)o2)cc1OC | inconclusive: 56.2 µM [inhibitor, partial curve, poor fit] |
| CC(=O)N1N=C(c2ccco2)CC1c1cc2cc(C)ccc2nc1Cl (centres undefined) | inconclusive: 22.4 µM [inhibitor, single point] |
| c1ccc(CNCCN2CCNCC2)nc1 | inconclusive: 17.8 µM [inhibitor, partial curve, poor fit] |
| Oc1ccc(Br)cc1C1C=C(c2ccc3c(c2)OCO3)NC(c2ccc(F)c(Br)c2)N1 (centres undefined) | inconclusive: 56.2 µM [inhibitor, single point] |
| COc1cc(/C=C/c2nc(C#N)c(N3CCN(C)CC3)o2)cc(OC)c1OC | inactive |
| CC(=O)c1cccc(-n2c(CCC(=O)O)ccc2-c2ccc(C)cc2)c1 | inconclusive: 28.2 µM [inhibitor, partial curve] |
| O=C1CC(c2ccco2)Cc2nc(Nc3nc(-c4ccccc4)c4ccccc4n3)ncc21 (centres undefined) | inconclusive: 79.4 µM [inhibitor, partial curve] |
| COc1ccccc1Cn1c(-c2ccco2)nc2nc3ccccc3nc21 | inconclusive: 35.5 µM [inhibitor, single point] |
| COc1ccc(CCN(C)Cc2c(O)ccc3cc(Br)ccc23)cc1OC | inconclusive: 56.2 µM [inhibitor, single point] |
| O=S(=O)(NCCCCNS(=O)(=O)c1c(F)cccc1F)c1ccc2c(c1)OCCO2 | inactive |
| COCCn1c(=S)[nH]c2sc3c(c2c1=O)CCCC3 | inconclusive: 10 µM [inhibitor, partial curve, poor fit] |

| Structure (SMILES) | Potency |
| --- | --- |
| CN(C(=O)c1c(Cl)cnn1C)C12CC3CC(CC(C3)C1)C2 | inconclusive: 31.6 µM [inhibitor, partial curve, poor fit] |
| CCOC(=O)c1ccc(NC2=CC(c3ccc(OCC)cc3)N(c3ccc(C(=O)OCC)cc3)C2=O)cc1 (centres undefined) | inactive |
| CSc1nc2sc3c(c2c(=S)[nH]1)CC(C)(C)OC3 | inconclusive: 35.5 µM [inhibitor, partial curve] |
| O=c1[nH]cc(I)cc1I | inactive |
| CC1(C)CC(C(=O)NCCC(c2ccccc2)c2ccco2)CCO1 (centres undefined) | inconclusive: 39.8 µM [inhibitor, partial curve, poor fit] |
| NS(=O)(=O)c1ccc(NS(=O)(=O)c2ccc(C3CNC(=O)C3)cc2)cc1 (centres undefined) | inactive |
| O=C(/C=C/c1cccc(OCc2ccccc2)c1)c1cccnc1 | inconclusive: 56.2 µM [inhibitor, partial curve] |
| Cc1cccc2c1c1ccc3c(c1n2C)C(=O)C=CC3=O | inconclusive: 25.1 µM [inhibitor, single point] |
| Cc1ccc(C2C=C(c3ccccc3)Nc3ncnn32)cc1 (centres undefined) | active: 44.7 µM |
| Cc1cc(N2CCN(C)CC2)nc2ccc(NC(=S)NCc3cccs3)cc12 | inconclusive: 17.8 µM [inhibitor, partial curve, poor fit] |
| CCOc1cc(NS(=O)(=O)CC)c(OCC)cc1NC(=O)c1ccco1 | inconclusive: 28.2 µM [inhibitor, single point] |
| O=C(Nc1ccccc1)NC1CC2CCC(C1)N2Cc1nnnn1Cc1ccc2c(c1)OCO2 (centres undefined) | inactive |
| COC(=O)/C(=C/c1ccco1)NC(=O)c1ccco1 | inactive |
| C[C@@H]1CC=C[C@H]2[C@H]1C(=O)N(Cc1ccccc1)[C@H]2c1ccc2ccccc2c1Br | active: 15.8 µM |
| CCOC(=O)c1c(C)[nH]c(C=C2C(=O)CCCC2=O)c1O | inconclusive: 56.2 µM [inhibitor, single point] |
| COc1ccc(OC)c(C2=NS(=O)(=O)N(C)C(C(=O)NCc3cccs3)=C2)c1 | inconclusive: 56.2 µM [inhibitor, partial curve, poor fit] |
| COc1cc(OC)cc(C(=O)NC(=S)NNC(=O)c2cnccn2)c1 | inconclusive: 31.6 µM [inhibitor, full curve] |
| CCN(CC)c1ccc(NC2CC(=O)N(CCc3ccc(OC)cc3)C2=O)cc1 (centres undefined) | inconclusive: 70.8 µM [inhibitor, partial curve, poor fit] |
| Oc1ccc(Cl)cc1C1=Nc2ccccc2N=C(c2ccccc2)C1 | inconclusive: 89.1 µM [inhibitor, single point] |
| COc1cccc(C2=CC(c3cc(OC)ccc3OC)n3nnnc3N2)c1 (centres undefined) | inconclusive: 100 µM [inhibitor, single point] |
| O=C(NC(=S)Nc1ccc2nc[nH]c2c1)c1ccccc1 | inconclusive: 79.4 µM [inhibitor, single point] |
| COc1cccc(CNC(=O)CN2CCC(c3nc4ccc(C)cc4[nH]3)CC2)c1 | inactive |
| Brc1ccc(/C=N/c2nc3ccccc3n2CCN2CCOCC2)cc1 | inconclusive: 39.8 µM [inhibitor, single point] |
